# Target: T1, CENP-OPQUR sub-complex (human, UniProt Q9BU64; Q6IPU0; Q7L2Z9 1-268; Q71F23 1-418; Q13352)
# T1 construct: CENP-O, human; CENP-P, human; CENP-Q, human; CENP-U, human; CENP-R, human; source: Sf9, purified (Ni-NTA, Mono S, SEC); copies: + + + +
# Experiment: SEC; assembly of CCAN with wild-type CENP-LN or CENP-L^4EN^2E, judged by elution profile (Supplementary Fig. S6c, d); sub-complexes mixed at 1:1:1
# Settings: both partners purified
binder,measurement,value
"CENP-L^4EN^2E mutant (complex, CENP-L, human, CENP-L^4E; CENP-N, human, CENP-N^2E; also called CENP-L^2EN^4E (as printed in the methods)) chain 1: MDSYSAPESTPSASSRPEDYFIGATPLQKRLESVRKQSSFILTPPRRKIPQCSQLQEDVDPQKVAFLLHKQWTLYSLTPLYKFSYSNLKEYSRLLNAFIVAEKQKGLAVEVGEDFNIKVIFSTLLGMKGTQRDPEAFLVQIVSKSQLPSENREGEVLWTGWFCCVFGDSLLETVSEDFTCLPLFLANGAESNTAIIGTWFQKTFDCYFSPLAINAFNLSWMAAMWTACKMDHYVATTEFLWSVPCSPQSLDISFAIHPEDAKALWDSVHKTPGEVTQEEVDLFMDCLYSHFHRHFKIHLSATRLVEVSTSVASAHTDGEIEILCHKYLIGVLAYLTELAIFQIE chain 2: [letters of about 350 residues left out]",binding result,binds
